According to PMC4336329 (PLoS ONE, 2015):
Screen size: about 310,000 compounds; about 2,200 (0.71%) showed an effect of 50% or more. Effects have a minus sign here. The list shows a part of the results.

The compounds below were run against human ether-à-go-go-related gene (hERG) potassium channel (human, UniProt Q12809) (assay: primary screen, population patch clamp on CHO cells stably expressing hERG).
human ether-à-go-go-related gene (hERG) potassium channel, sequence (Q12809 whole entry, looked up): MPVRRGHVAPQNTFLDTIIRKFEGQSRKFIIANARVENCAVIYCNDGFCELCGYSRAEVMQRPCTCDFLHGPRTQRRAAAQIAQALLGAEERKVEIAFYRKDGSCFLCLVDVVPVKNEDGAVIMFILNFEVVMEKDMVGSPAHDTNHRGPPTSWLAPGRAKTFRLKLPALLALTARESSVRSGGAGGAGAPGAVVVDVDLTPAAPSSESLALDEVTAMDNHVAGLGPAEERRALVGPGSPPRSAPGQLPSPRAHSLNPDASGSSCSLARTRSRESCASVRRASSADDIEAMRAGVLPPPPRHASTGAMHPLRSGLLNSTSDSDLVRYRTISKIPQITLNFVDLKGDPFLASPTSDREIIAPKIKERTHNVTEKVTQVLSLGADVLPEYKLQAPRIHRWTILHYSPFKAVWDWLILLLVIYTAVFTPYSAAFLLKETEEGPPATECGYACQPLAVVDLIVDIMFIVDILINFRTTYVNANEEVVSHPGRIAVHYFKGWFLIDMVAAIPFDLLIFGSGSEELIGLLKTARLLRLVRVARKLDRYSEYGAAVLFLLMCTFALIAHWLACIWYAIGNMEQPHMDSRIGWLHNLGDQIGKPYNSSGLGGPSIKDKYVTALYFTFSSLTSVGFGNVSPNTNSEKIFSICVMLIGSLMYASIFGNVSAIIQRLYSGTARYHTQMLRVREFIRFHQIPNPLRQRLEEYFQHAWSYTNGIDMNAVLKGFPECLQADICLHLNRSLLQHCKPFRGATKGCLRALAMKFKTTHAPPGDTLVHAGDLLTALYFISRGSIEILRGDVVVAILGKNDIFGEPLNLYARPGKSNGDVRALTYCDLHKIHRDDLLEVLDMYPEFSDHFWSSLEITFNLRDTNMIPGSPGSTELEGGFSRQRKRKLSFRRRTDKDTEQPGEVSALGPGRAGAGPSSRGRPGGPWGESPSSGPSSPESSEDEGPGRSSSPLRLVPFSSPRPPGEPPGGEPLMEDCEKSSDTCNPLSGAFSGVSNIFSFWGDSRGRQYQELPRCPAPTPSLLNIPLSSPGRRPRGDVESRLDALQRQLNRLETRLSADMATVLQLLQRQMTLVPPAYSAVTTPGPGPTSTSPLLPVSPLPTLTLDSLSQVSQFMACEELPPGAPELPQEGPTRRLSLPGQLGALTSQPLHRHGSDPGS
`CCn1c(NC(=O)c2cccs2)nc2ccccc21` was tested, and the “hERG current change (%, negative = inhibition) at 1uM” value was 3.61%. In the case of `Cc1onc(-c2ccccc2Cl)c1C(=O)OCC(=O)c1ccccc1`, the “hERG current change (%, negative = inhibition) at 1uM” value is reported as 5.74%. `O=C(CN1CCN(S(=O)(=O)c2ccccc2)CC1)NC1CC1` was tested, and the “hERG current change (%, negative = inhibition) at 1uM” value was 22.8%. In the case of `O=C(Nc1ccc2nc(C3CC3)n(Cc3ccc(F)cc3)c(=O)c2c1)c1ccco1`, the “hERG current change (%, negative = inhibition) at 1uM” value is reported as 8.35%. With `CCN(CC)S(=O)(=O)c1cc(NC(=O)NCCCl)ccc1C` the “hERG current change (%, negative = inhibition) at 1uM” value was 3.83%. For `CC(CC(=O)NNC(=O)c1cccc(Cl)c1)c1ccccc1` (stereo not drawn), the “hERG current change (%, negative = inhibition) at 1uM” value was 10.8%. In the case of `c1ccc(-c2nc(-n3nc4ccccc4n3)nc3ccccc23)cc1`, the “hERG current change (%, negative = inhibition) at 1uM” value is reported as 9.55%. In the case of `O=c1[nH]c2cc3c(cc2cc1C(c1nnnn1CC1CCCO1)N1CCCCCC1)OCCO3` (stereo not drawn), the “hERG current change (%, negative = inhibition) at 1uM” value is reported as 2.29%. With `Cc1sc2nc(C3CC3)nc(SCC(=O)N3CC(=O)Nc4ccccc43)c2c1C` the “hERG current change (%, negative = inhibition) at 1uM” value was 11.3%. In the case of `CC(C)Oc1ccc(S(=O)(=O)N2CCCCC2)cc1NC(=O)CN1CCCC1c1cccs1` (stereo not drawn), the “hERG current change (%, negative = inhibition) at 1uM” value is reported as 13.2%. In the case of `CCC(=O)c1ccc(OCC(=O)OCC(=O)N2CCCc3ccccc32)cc1`, the “hERG current change (%, negative = inhibition) at 1uM” value is reported as 16.2%. In the case of `Cc1ccc(C)c(N(CC(=O)NC(C)(C)C)C(=O)CCC(=O)Nc2nccs2)c1`, the “hERG current change (%, negative = inhibition) at 1uM” value is reported as 17.9%. `COc1ccc2[nH]c(C)c(CCN(Cc3cccs3)C(=S)Nc3ccc(F)cc3)c2c1` was tested, and the “hERG current change (%, negative = inhibition) at 1uM” value was 6.92%. With `COc1ccc2c(c1)C1=C(CC2)C(c2ccc(C)cc2)NC(=S)N1` (stereo not drawn) the “hERG current change (%, negative = inhibition) at 1uM” value was 6.13%. For `COCCNS(=O)(=O)c1ccc2c(c1)C(=NO)c1cc(S(=O)(=O)NCCOC)ccc1-2`, the “hERG current change (%, negative = inhibition) at 1uM” value was 11%. `COc1ccccc1N1CCN(C2CCCCC2NS(=O)(=O)c2ccc(Cl)cc2)CC1` (stereo not drawn) was tested, and the “hERG current change (%, negative = inhibition) at 1uM” value was 7.26%. With `CCN1C(=O)N[C@@H](c2cccs2)C(C(C)=O)=C1C` the “hERG current change (%, negative = inhibition) at 1uM” value was 13.3%. With `CCNc1nc(NCC)n2c(SCC(=O)N3CC4(C)CC3CC(C)(C)C4)nnc2n1` (stereo not drawn) the “hERG current change (%, negative = inhibition) at 1uM” value was 10.3%. `COC(=O)c1ccc2c(=O)n(CCCCCC(=O)O)c(=O)[nH]c2c1` was tested, and the “hERG current change (%, negative = inhibition) at 1uM” value was 3.98%. With `CN(C)/C=C/C(=O)c1ccc(Br)s1` the “hERG current change (%, negative = inhibition) at 1uM” value was 13.2%. `COC(=O)CSc1nc(C)cc(C)n1` was tested, and the “hERG current change (%, negative = inhibition) at 1uM” value was 9.24%. For `CCN(CC)S(=O)(=O)c1cc(C(=O)OC)ccc1Cl`, the “hERG current change (%, negative = inhibition) at 1uM” value was 17%. With `Cc1oc(-c2ccc(Cl)cc2)nc1CS(=O)CC(=O)NCc1cccs1` (stereo not drawn) the “hERG current change (%, negative = inhibition) at 1uM” value was -3.11%. `O=C(COC(=O)c1ccc(F)cc1F)Nc1ccc2[nH]c(=O)[nH]c2c1` was tested, and the “hERG current change (%, negative = inhibition) at 1uM” value was 30.7%. With `COc1ccc(CNC(=O)C2CCN(c3nn4c(=O)cc(C)nc4s3)CC2)cc1` the “hERG current change (%, negative = inhibition) at 1uM” value was 20.3%. For `CC(=O)Nc1ccc(C(=O)Nc2cc(C)on2)cc1`, the “hERG current change (%, negative = inhibition) at 1uM” value was 18.2%. `CC1CN(C(=S)NC(=O)c2cccc([N+](=O)[O-])c2)CC(C)O1` (stereo not drawn) was tested, and the “hERG current change (%, negative = inhibition) at 1uM” value was 12.2%. With `COc1ccccc1-n1c(SCC(N)=O)nc2sc3c(c2c1=O)CCC3` the “hERG current change (%, negative = inhibition) at 1uM” value was 4.03%. With `O=C(N/N=C/c1cccnc1)C(=O)N1CCCCCC1` the “hERG current change (%, negative = inhibition) at 1uM” value was 11.8%. In the case of `COc1ccc(C(=O)Nc2ccc(C3CC3(Cl)Cl)cc2)cc1` (stereo not drawn), the “hERG current change (%, negative = inhibition) at 1uM” value is reported as 14.2%. With `Cc1ccc(-n2nc3cc(C)c(NC(=S)NC(=O)/C=C/c4ccco4)cc3n2)cc1` the “hERG current change (%, negative = inhibition) at 1uM” value was 14.7%. In the case of `c1ccc2c(c1)OCCOCCOCCOCCOCCOc1ccccc1OCCOCCOCCO2`, the “hERG current change (%, negative = inhibition) at 1uM” value is reported as -8.98%. For `COc1ccnc(Oc2ccc(F)cc2)c1C(=O)N/C=N/OCc1cccc(F)c1`, the “hERG current change (%, negative = inhibition) at 1uM” value was 4.83%. For `Cc1cc(NC(=O)c2ccc(C#N)cc2)n(-c2ccccn2)n1`, the “hERG current change (%, negative = inhibition) at 1uM” value was -2.65%. In the case of `CC1CN(C(=O)COC(=O)c2cc(=O)c3ccccc3o2)CC(C)O1` (stereo not drawn), the “hERG current change (%, negative = inhibition) at 1uM” value is reported as 12.7%. For `CCN(CC)c1ccc(NC(=O)CSc2nc3ccccc3c(=O)[nH]2)cc1`, the “hERG current change (%, negative = inhibition) at 1uM” value was 3.02%. `C[C@]12CCC(=O)C=C1CC[C@@H]1[C@@H]2CC[C@@]2(C)[C@H]1CC[C@@]21CCC(=O)O1` was tested, and the “hERG current change (%, negative = inhibition) at 1uM” value was 4.4%. For `Cc1ccc(-c2nnc(C)c(N3CC(C)OC(C)C3)n2)cc1` (stereo not drawn), the “hERG current change (%, negative = inhibition) at 1uM” value was 8.63%. With `CSc1cccc(N2CC(C(=O)NCCC3=CCCCC3)CC2=O)c1` (stereo not drawn) the “hERG current change (%, negative = inhibition) at 1uM” value was 17.4%. For `Cc1ccc(CSc2nc3c(c(=O)[nH]c(=O)n3C)n2CCC(C)C)cc1`, the “hERG current change (%, negative = inhibition) at 1uM” value was 13.1%. With `COCCSc1nnc(NC(=O)COC)s1` the “hERG current change (%, negative = inhibition) at 1uM” value was 12.7%. In the case of `CCOC(=O)c1c(N)nn(C(=O)c2ccccc2F)c1-c1ccc(OC)cc1`, the “hERG current change (%, negative = inhibition) at 1uM” value is reported as 7.45%. With `Cc1ccc(C)c(OCCC(=O)OCC(=O)NCCNC(=O)COC(=O)CCOc2cc(C)ccc2C)c1` the “hERG current change (%, negative = inhibition) at 1uM” value was 6.53%. In the case of `COC(=O)c1sc(S(=O)(=O)N2CC[NH+](CCO)CC2)c(C(=O)OC)c1C.[Cl-]`, the “hERG current change (%, negative = inhibition) at 1uM” value is reported as 8.37%. `COc1cccc(CNCCc2c[nH]c3ccccc23)c1OC.Cl` was tested, and the “hERG current change (%, negative = inhibition) at 1uM” value was 7.49%. For `COc1ccccc1C(=O)N1CCN(S(=O)(=O)c2ccccc2)CC1`, the “hERG current change (%, negative = inhibition) at 1uM” value was 5.19%. With `CC1CCc2sc(C(=O)NNC(=S)NCC3CCCO3)cc2C1` (stereo not drawn) the “hERG current change (%, negative = inhibition) at 1uM” value was 4.8%. In the case of `CC(C)(C)c1ccccc1NC(=O)c1ccco1`, the “hERG current change (%, negative = inhibition) at 1uM” value is reported as 13.9%. `CCOc1ccc(/C(C)=N/NC(=O)Cn2nc([N+](=O)[O-])cc2C)cc1` was tested, and the “hERG current change (%, negative = inhibition) at 1uM” value was 11%. For `CS(=O)(=O)N1CCc2cc(S(=O)(=O)Nc3ccc4c(c3)OCCO4)ccc21`, the “hERG current change (%, negative = inhibition) at 1uM” value was 5.43%. For `C#CCn1c(-c2cccs2)nc2ccccc21`, the “hERG current change (%, negative = inhibition) at 1uM” value was 9.03%. In the case of `CCOC(=O)COc1ccc2c(c1)C(=O)CC(C)(c1cccnc1)O2` (stereo not drawn), the “hERG current change (%, negative = inhibition) at 1uM” value is reported as 14.5%. With `O=C1C(CCS(=O)c2ccccc2)C(=O)N(c2ccccc2)N1c1ccccc1` (stereo not drawn) the “hERG current change (%, negative = inhibition) at 1uM” value was 16.9%. `COC(=O)c1sccc1NC(=O)Cn1cnc2c1c(=O)n(C)c(=O)n2C` was tested, and the “hERG current change (%, negative = inhibition) at 1uM” value was 8.94%. `CC(C)(C)OC(=O)NN=C(c1ccc(O)cc1)c1ccc(O)cc1` was tested, and the “hERG current change (%, negative = inhibition) at 1uM” value was 14.3%. With `COc1ccc(OC)c(NC(=O)c2ccccc2NS(=O)(=O)c2cccc3cccnc23)c1` the “hERG current change (%, negative = inhibition) at 1uM” value was 14%. `CCCCN(C(=O)CNC(=O)c1ccco1)C(C(=O)NC1CCCC1)c1ccc(OC)cc1` (stereo not drawn) was tested, and the “hERG current change (%, negative = inhibition) at 1uM” value was -7%.
